In the supplement of paper PMC10126150:
Values marked as one replicate rest on one cluster of the flow cell; about a third of the high ones do not repeat.

test system: ATP; test: switch fluorescence ratio, 500 uM ATP over buffer (Cy3 cluster intensity, sum of 5 cycles each) (fold (ratio)); higher = stronger signal-on switching upon ATP binding; details: aptamer strand: ATP DNA aptamer (quencher-CACCTGGGGGAGTATTGCGGAGGAAGG + anchor), 100 nM annealed; ATP concentration: 500 uM; one replicate
Summary of the method: (§1)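 Switching-strand clusters labelled with Cy3 on a modified Illumina MiSeq flow-cell were annealed to 100 nM quencher-labelled ATP aptamer, imaged in selection buffer, and re-imaged after 15 min with 500 uM ATP at 22 °C. This was done over five cycles with NaOH stripping and re-annealing in between. The fluorescence ratio is summed target-cycle over summed buffer-cycle Cy3 intensity per cluster, averaged per switch-domain sequence, excluding clusters outside 100-1000 RFU.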
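Further: ATP exposure 15 min at 22 °C before imaging.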

Row | Sequence | switch fluorescence ratio
1 | TCGTCGGCAGCGTCAGATGTGTATAAGAGACAGTTTTTTTTTTTTTTTTTTTTTTTTTTGTTC | 0.964

test system: ATP; test: switch fluorescence ratio, 500 uM ATP over buffer (Cy3 cluster intensity, sum of 5 cycles each) (fold (ratio)); higher = stronger signal-on switching upon ATP binding; sequences stand for … in TCGTCGGCAGCGTCAGATGTGTATAAGAGACAGTTTTTTTTTTTTTTTTTTTTTTTTT…TC; details: aptamer strand: ATP DNA aptamer (quencher-CACCTGGGGGAGTATTGCGGAGGAAGG + anchor), 100 nM annealed; ATP concentration: 500 uM; one replicate
Summary of the method: as §1

Row | Sequence | switch fluorescence ratio
2 | GGGCTCGTGC | 1.01
3 | TTACTAGTGT | 1.01
4 | CGCGGGCGAG | 1.03
5 | GTAGTCAACT | 0.968
6 | AATTCACGT | 1
7 | GTTTGTCGG | 1.03
8 | TGCTGATTTT | 0.99
9 | ATAGCGAATT | 1.03
10 | TACAGGCACC | 1.18
11 | TAAATATCCC | 0.994
12 | GGGATGGCG | 1.14
13 | ACTATCAACT | 1.03
14 | ATGCGTACT | 1.01
15 | GGGCAAAATT | 0.97
16 | TTATTTCTTA | 0.983
17 | TGCTAGATGG | 0.972
18 | TGGGATTCGT | 0.93
19 | ATATATAGCG | 0.932
20 | AAGGTCAAC | 0.985
21 | GAATCTGTCC | 1.11
22 | TACGTTTCGT | 0.992
23 | GTTATACATC | 1.03

Row | Sequence | switch fluorescence ratio
24 | AGATCATAGG | 1.01
25 | ATGTATCGG | 1.02
26 | CGAGTGCCGA | 0.997
27 | TTCGAGCTTG | 0.953
28 | GGAGCTTGTG | 1.01
29 | CGCGCGAAAT | 1.07
30 | TAAAGATAA | 0.984
31 | TGAGACGCAT | 1.41
32 | TCGAAAAATA | 1.02
33 | TGGGTATGCC | 0.926
34 | AAAAGTCGGA | 0.975
35 | GCATACGGGT | 1.06
36 | CACCAGGAGA | 1.56
37 | TCGTGCTGCC | 1
38 | TAATGGCCTG | 0.992
39 | AGAATTTAGG | 1.02
40 | CGACTTGTAC | 2.33
41 | ATTCGGAGCT | 1.17
42 | CGGGATTTC | 0.973
43 | AGAGGTTATA | 0.995
44 | CTTCTATAA | 0.96
45 | GCTCATATTT | 0.977

Row | Sequence | switch fluorescence ratio
46 | TTGCGTTTGT | 1
47 | ACCGGTTCGT | 0.982
48 | AACTTCGATC | 1.03
49 | CCGGTGTTTA | 1.02
50 | TAATGCTCAT | 0.984
51 | CACAGGATCC | 1.02
52 | CTTGAGTGG | 0.941
53 | GCTCCCACAC | 3.93
54 | GACTATGTA | 1.06
55 | TGCGATTTA | 0.98
56 | GCATCTAAGG | 1.03
57 | TGTGGAGTTT | 0.962
58 | AAGGTATTCT | 1.02
59 | ACGTTTTGGA | 0.971
60 | ACATCGGTGG | 0.967
61 | ATACGTGGTA | 0.994
62 | AGATGGCGGG | 0.948
63 | AGGAGTGGCA | 1.05
64 | CGCGTGCATC | 1.02
65 | GTAGTGCTTA | 0.974
